In a collection of fitness landscapes (doi:10.1126/science.1257360):
The list shows a part of the results.

B1: PhoQ; a variant is named by its letters at X, in order, P23837 (parent)
chain: MKKLLRLFFPLSLRVRFLLATAAVVLVLSLAYGMVALIGYSVSFDKTTFRLLRGESNLFYTLAKWENNKLHVELPENIDKQSPTMTLIYDENGQLLWAQRDVPWLMKMIQPDWLKSNGFHEIEADVNDTSLLLSGDHSIQQQLQEVREDDDDAEMTHSVAVNVYPATSRMPKLTIVVVDTIPVELKSSYMVWSWFIYVLSANLLLVIPLLWVAAWWSLRPIEALAKEVRELEEHNRELLNPATTRELTSLVRNLNRLLKSERERYDKYRTTLTDLTHSLKTPLXXLQXXLRSLRSEKMSVSDAEPVMLEQISRISQQIGYYLHRASMRGGTLLSRELHPVAPLLDNLTSALNKVYQRKGVNISLDISPEISFVGEQNDFVEVMGNVLDNACKYCLEFVEISARQTDEHLYIVVEDDGPGIPLSKREVIFDRGQRVDTLRPGQGVGLAVAREITEQYEGKIVAGESMLGGARMEVIFGRQHSAPKDE

Variants of: B1
Experiment: enrichment ratio after two sorts for PhoP signalling (ratio (wild type AVST 3.29)); higher = more functional
Settings: with PhoP (E. coli)

Row | Variant | enrichment ratio
1 | GYQY | ≤ 0.25
2 | LDII | ≤ 0.25
3 | NDDR | ≤ 0.25
4 | LIHQ | ≤ 0.25
5 | RVFG | ≤ 0.25
6 | YARI | ≤ 0.25
7 | KDLT | ≤ 0.25
8 | LLKM | ≤ 0.25
9 | DRAI | 0.276
10 | FVMP | ≤ 0.25
11 | YFQY | ≤ 0.25
12 | HLWM | ≤ 0.25
13 | FNVM | 4.22
14 | NETI | ≤ 0.25
15 | LTGW | ≤ 0.25
16 | IWFN | ≤ 0.25
17 | GYAV | ≤ 0.25
18 | IKNV | ≤ 0.25
19 | MVGK | ≤ 0.25
20 | TKPP | ≤ 0.25
21 | QKCH | ≤ 0.25
22 | IEWS | ≤ 0.25
23 | GGKV | ≤ 0.25
24 | HRLC | ≤ 0.25
25 | KVQD | ≤ 0.25

Row | Variant | enrichment ratio
26 | ECGG | ≤ 0.25
27 | NFEL | ≤ 0.25
28 | HNHP | ≤ 0.25
29 | SLQH | 2.31
30 | KQIA | ≤ 0.25
31 | NDKE | ≤ 0.25
32 | MSYY | 4.19
33 | VSSM | 4.97
34 | VHMR | ≤ 0.25
35 | WMKF | ≤ 0.25
36 | VGTK | ≤ 0.25
37 | FVPR | ≤ 0.25
38 | STPH | ≤ 0.25
39 | YLMP | ≤ 0.25
40 | NCIF | ≤ 0.25
41 | KGTY | ≤ 0.25
42 | TLQS | 1.85
43 | WELG | 1.25
44 | SDHY | ≤ 0.25
45 | EAGF | ≤ 0.25
46 | GDLE | ≤ 0.25
47 | EMSD | ≤ 0.25
48 | NVRA | ≤ 0.25
49 | SDHP | ≤ 0.25
50 | SNKM | ≤ 0.25

Row | Variant | enrichment ratio
51 | AFFR | ≤ 0.25
52 | HVMS | ≤ 0.25
53 | LQIY | ≤ 0.25
54 | KQGF | ≤ 0.25
55 | NDCY | ≤ 0.25
56 | QRHP | ≤ 0.25
57 | FMDD | ≤ 0.25
58 | RMKV | ≤ 0.25
59 | QMHC | ≤ 0.25
60 | IHWR | ≤ 0.25
61 | PNHL | ≤ 0.25
62 | MLFP | ≤ 0.25
63 | YDDT | ≤ 0.25
64 | EFPK | ≤ 0.25
65 | GQFE | ≤ 0.25
66 | HLAF | ≤ 0.25
67 | IQEI | ≤ 0.25
68 | LQFE | ≤ 0.25
69 | WLRT | ≤ 0.25
70 | NFDE | ≤ 0.25
71 | LTLE | ≤ 0.25
72 | ELVF | ≤ 0.25
73 | TGSA | 6.87
74 | APFY | ≤ 0.25
75 | NWTL | ≤ 0.25

Row | Variant | enrichment ratio
76 | YSKF | ≤ 0.25
77 | TLNM | 1.47
78 | VHCQ | ≤ 0.25
79 | GGGP | ≤ 0.25
80 | NYHK | ≤ 0.25
81 | MKSY | ≤ 0.25
82 | WTCI | ≤ 0.25
83 | RPKM | ≤ 0.25
84 | VPKW | ≤ 0.25
85 | NCSL | ≤ 0.25
86 | TPAN | ≤ 0.25
87 | MANG | ≤ 0.25
88 | DHPT | ≤ 0.25
89 | ADLD | ≤ 0.25
90 | RGVI | ≤ 0.25
91 | AWKI | ≤ 0.25
92 | IGER | ≤ 0.25
93 | VTGD | ≤ 0.25
94 | NWGK | ≤ 0.25
95 | WSKM | ≤ 0.25
96 | LQAS | ≤ 0.25
97 | KHTP | ≤ 0.25
98 | DYWD | ≤ 0.25
99 | QKFM | ≤ 0.25
100 | RTYQ | ≤ 0.25

Row | Variant | enrichment ratio
101 | PIRW | ≤ 0.25
102 | LYKH | ≤ 0.25
103 | RSCA | ≤ 0.25
104 | DVIR | ≤ 0.25
105 | EYSP | ≤ 0.25
106 | RVCK | ≤ 0.25
107 | DRDS | ≤ 0.25
108 | KLAF | ≤ 0.25
109 | AGWQ | ≤ 0.25
110 | QEDK | ≤ 0.25
111 | TWIK | ≤ 0.25
112 | LADN | ≤ 0.25
113 | LHHY | ≤ 0.25
114 | WFLD | ≤ 0.25
115 | TEIF | 9.64
116 | SDMK | ≤ 0.25
117 | TTLV | 17.9
118 | KDYP | ≤ 0.25
119 | TIPQ | ≤ 0.25
120 | ARCP | ≤ 0.25
121 | YYSF | ≤ 0.25
122 | RELC | ≤ 0.25
123 | NDRR | ≤ 0.25
124 | SLGW | 3.15
125 | IIKP | ≤ 0.25

Row | Variant | enrichment ratio
126 | KNGA | ≤ 0.25
127 | MFPL | ≤ 0.25
128 | KELP | ≤ 0.25
129 | NSTG | ≤ 0.25
130 | VEVR | ≤ 0.25
131 | NYVN | ≤ 0.25
132 | MGGD | ≤ 0.25
133 | RTRQ | ≤ 0.25
134 | VLTN | ≤ 0.25
135 | FRAK | ≤ 0.25
136 | TWHW | ≤ 0.25
137 | PPPC | ≤ 0.25
138 | LNYE | ≤ 0.25
139 | FSPD | ≤ 0.25
140 | WRHF | ≤ 0.25
141 | SPYG | ≤ 0.25
142 | YMIM | ≤ 0.25
143 | RCEV | ≤ 0.25
144 | DISV | ≤ 0.25
145 | SDYF | ≤ 0.25
146 | SMRR | ≤ 0.25
147 | VHLV | ≤ 0.25
148 | YCFR | ≤ 0.25
149 | MVYC | ≤ 0.25
150 | FEDM | ≤ 0.25

Row | Variant | enrichment ratio
151 | RLFW | ≤ 0.25
152 | LCGG | ≤ 0.25
153 | LDTT | ≤ 0.25
154 | YPWL | ≤ 0.25
155 | IDVP | ≤ 0.25
156 | LWTP | ≤ 0.25
157 | YNPP | ≤ 0.25
158 | VANT | ≤ 0.25
159 | VWKP | ≤ 0.25
160 | SRAV | ≤ 0.25
161 | EMHL | ≤ 0.25
162 | IESS | ≤ 0.25
163 | PDTF | ≤ 0.25
164 | DYQY | ≤ 0.25
165 | IDCA | ≤ 0.25
166 | RREL | ≤ 0.25
167 | YAGP | ≤ 0.25
168 | QHKD | ≤ 0.25
169 | RMHC | ≤ 0.25
170 | RWAN | ≤ 0.25
171 | YNTQ | ≤ 0.25
172 | LHNC | ≤ 0.25
173 | IKQD | ≤ 0.25
174 | DYFD | ≤ 0.25
175 | YFTD | ≤ 0.25

Row | Variant | enrichment ratio
176 | NTEI | ≤ 0.25
177 | ICWP | ≤ 0.25
178 | GECP | ≤ 0.25
179 | DTMG | ≤ 0.25
180 | IACI | ≤ 0.25
181 | SRPD | ≤ 0.25
182 | NLCT | ≤ 0.25
183 | TQPG | 1.04
184 | HSNQ | ≤ 0.25
185 | NCIG | ≤ 0.25
186 | TIFF | ≤ 0.25
187 | YVVS | ≤ 0.25
188 | PSMC | ≤ 0.25
189 | HALG | 0.815
190 | NGCR | ≤ 0.25
191 | NKKN | ≤ 0.25
192 | VEDF | ≤ 0.25
193 | MTDD | ≤ 0.25
194 | WLKC | ≤ 0.25
195 | WNLT | ≤ 0.25
